Laboratory results reported in patent US20060165687A1, “Vaccine adjuvant” (DUKE UNIVERSITY, priority 2004, published 2006).

Tested on: thymocytes (thymopoiesis)
Conditions: day 10 post treatment with Y13 (0.25 mg) and TLR agonist

With flagellin [TLR-5 ligand] the “thymopoiesis (number of thymocytes isolated)” value was “suppress thymopoiesis”.
